In publication PMC7819943, “Rice protein-binding microarrays: a tool to detect cis-acting elements near promoter regions in rice”:
Some of the results follow.

What follows are sequences tested against T1, OsWOX13 (Oryza sativa, UniProt Q5QMM3 1-267) (assay: protein-binding microarray (RPBM); PBS, 2% BSA, 51.3 ng/ul salmon testes DNA, 50 uM zinc acetate, 200 nM TF, 25 C, 1 h; high values mean tight binding). Conditions: protein: recombinant; tags: N-terminal polyhistidine and DsRed monomer fusion (pET32a); label: CyDye5-dUTP incorporated in the synthesized complementary strand; 3' TTTTT single-stranded linker to array surface; dsDNA, one strand shown.
T1 sequence: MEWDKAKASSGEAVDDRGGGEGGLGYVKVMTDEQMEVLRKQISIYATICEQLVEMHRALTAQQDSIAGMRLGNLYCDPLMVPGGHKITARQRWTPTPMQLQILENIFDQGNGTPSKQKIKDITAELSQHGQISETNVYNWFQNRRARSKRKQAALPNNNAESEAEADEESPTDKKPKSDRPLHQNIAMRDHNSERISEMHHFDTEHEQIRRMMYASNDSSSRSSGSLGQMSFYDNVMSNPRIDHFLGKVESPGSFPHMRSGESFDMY
How it was run: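 The binding signal is fluorescence intensity per feature, in arbitrary units, read on an Axon 4000B scanner. Polyhistidine- and DsRed-tagged transcription factors (N-terminal fusions) from E. coli BL21-CodonPlus were purified on Ni–NTA and applied at 200 nM for 1 h at 25 °C to a double-stranded, BSA-blocked custom Agilent array in buffer with 50 µM zinc acetate.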
In the case of “TCGTACTGTAATTACATTGTAAGTTACATGTAATTACACTCGGAGTCACCTAGTGCAG”, the binding signal is reported as 13600 fluorescence intensity (a.u.).
In the case of “AGCCCTAATTTACTGTAATTAGTGTTGGCTATGTAATTAGCGGAGTCACCTAGTGCAG”, the binding signal is reported as 44800 fluorescence intensity (a.u.).
For “TGTTTAGACTGAACTGCAAGGCTGTTTTGATCCGGCGGTGCGGAGTCACCTAGTGCAG”, the binding signal was 3590 fluorescence intensity (a.u.).
In the case of “ATTGACTCTTTAATTAAATCCATAACTTGAGTGCATGGTTCGGAGTCACCTAGTGCAG”, the binding signal is reported as 11200 fluorescence intensity (a.u.).
For “ACTTTAATTAGTTACGGCAGATGGATGATAGTACGTAGGACGGAGTCACCTAGTGCAG”, the binding signal was 26100 fluorescence intensity (a.u.).
With “TAATTAATCATGTGCTAATTTGCTGTTCCAATTTGCGTGTCGGAGTCACCTAGTGCAG” the binding signal was 36600 fluorescence intensity (a.u.).
For “CAAAATCAGATATATAACATCTATCAACTTACAAAACCGTCGGAGTCACCTAGTGCAG”, the binding signal was 3540 fluorescence intensity (a.u.).
“GGGGAGGGGAGGGGAAGATCTAGAACCGCGGGGAAGACGACGGAGTCACCTAGTGCAG” was tested, and the binding signal was 3500 fluorescence intensity (a.u.).
In the case of “CTTATTGACATGTACTCCAAATCAGGGAGGTTGTCGGTAGCGGAGTCACCTAGTGCAG”, the binding signal is reported as 11900 fluorescence intensity (a.u.).
For “ATAGATAAATTTAGAGGTGATAGTCACATGTACCATAGCACGGAGTCACCTAGTGCAG”, the binding signal was 11400 fluorescence intensity (a.u.).
“TTAAATATATATTAAATGATTCGAACATGCATAGACAAAACGGAGTCACCTAGTGCAG” was tested, and the binding signal was 3460 fluorescence intensity (a.u.).
For “GCTATGATTGTCTTTAGGGTATCTAATAATTGTGGTTTGACGGAGTCACCTAGTGCAG”, the binding signal was 21700 fluorescence intensity (a.u.).
For “TAAAATTTACTCCTATGAAGATTTAAACTTAGAACCTTGGCGGAGTCACCTAGTGCAG”, the binding signal was 3670 fluorescence intensity (a.u.).
For “AAAACAGGTAAATTTATAATGGCATGCATCCAATTAACTCCGGAGTCACCTAGTGCAG”, the binding signal was 13800 fluorescence intensity (a.u.).
“GCTGAATGCTAATCTCTGTTACTGAAACCACTCAAACACTCGGAGTCACCTAGTGCAG” was tested, and the binding signal was 5180 fluorescence intensity (a.u.).
For “CCTGTGATGACTTCGTTAATGTCAACGTATGTCGGATGAGCGGAGTCACCTAGTGCAG”, the binding signal was 11500 fluorescence intensity (a.u.).
With “AGCCAAATCATCCGGACTAATCTGGACCGTCCATCCGCGCCGGAGTCACCTAGTGCAG” the binding signal was 4540 fluorescence intensity (a.u.).
In the case of “CGCATGATCAAAATTAATTCGAAAACATAATCTAGAGGATCGGAGTCACCTAGTGCAG”, the binding signal is reported as 7870 fluorescence intensity (a.u.).
For “GTACCTACCAGTAATTAATCAGCAGGCTCACTGTAATCAACGGAGTCACCTAGTGCAG”, the binding signal was 3470 fluorescence intensity (a.u.).
With “TCTGATTTGGAGTCACAAGAAAATACTCCTCCATCCAATCCGGAGTCACCTAGTGCAG” the binding signal was 21200 fluorescence intensity (a.u.).
With “CCAAAATTTACAATTTCTAGTGGCGCACGCGGGAATGCAACGGAGTCACCTAGTGCAG” the binding signal was 13100 fluorescence intensity (a.u.).
With “GATTTAAATTAATTTTGATCAAACTTATAGAAATTATAGCCGGAGTCACCTAGTGCAG” the binding signal was 50100 fluorescence intensity (a.u.).
For “TGGGTCATTTATTGATTATTGTATTATTGTTCCTTATATTCGGAGTCACCTAGTGCAG”, the binding signal was 10300 fluorescence intensity (a.u.).
In the case of “CAATAATTTATGATATAGCATATTTGTTAAACCAAATAAACGGAGTCACCTAGTGCAG”, the binding signal is reported as 5520 fluorescence intensity (a.u.).
In the case of “GTAAATTACATGGAGCCCAACACCGCTTTCTATTAGGGGTCGGAGTCACCTAGTGCAG”, the binding signal is reported as 14800 fluorescence intensity (a.u.).
With “ATGTAATTGTAGTGTAACTATTATGTAATTGCAGTGTAACCGGAGTCACCTAGTGCAG” the binding signal was 26500 fluorescence intensity (a.u.).
“TCTGACAGGCCGAATCCTCTCCGGATCCCGGTCCATCTCCCGGAGTCACCTAGTGCAG” was tested, and the binding signal was 10200 fluorescence intensity (a.u.).
With “TGTAATTTAATTTTGCCTCCACATTTCCTGACTTTGGCCACGGAGTCACCTAGTGCAG” the binding signal was 45700 fluorescence intensity (a.u.).
With “ATTCTGATTCTGAAAGAAACTGCAATTACCGGAAGCTCTCCGGAGTCACCTAGTGCAG” the binding signal was 3750 fluorescence intensity (a.u.).
“TACACAAACATATAATTACACGAAAACTAAGGCCGTGTTTCGGAGTCACCTAGTGCAG” was tested, and the binding signal was 5170 fluorescence intensity (a.u.).
In the case of “ACCATAACTCTATCAAACACTCAATTATATCCATATGCTTCGGAGTCACCTAGTGCAG”, the binding signal is reported as 5460 fluorescence intensity (a.u.).
“TTAAATAAATCAGTTAGCAGTGCTGAAGGTTTATTGATAACGGAGTCACCTAGTGCAG” was tested, and the binding signal was 4300 fluorescence intensity (a.u.).
With “ACGATGAAAATCAACTTAATTATAGAAATAGAAATCGACACGGAGTCACCTAGTGCAG” the binding signal was 7260 fluorescence intensity (a.u.).
“GGAGTTTTAATAATGATTTTAGGGTGGGTGGAAAGATTACCGGAGTCACCTAGTGCAG” was tested, and the binding signal was 3630 fluorescence intensity (a.u.).
For “AAAATAAACAAATCTATCCACTAACAATTTGACATGATATCGGAGTCACCTAGTGCAG”, the binding signal was 7240 fluorescence intensity (a.u.).
With “TAATAATTGTTAGCTGATGATGATGTGACATCTTTGCATGCGGAGTCACCTAGTGCAG” the binding signal was 28900 fluorescence intensity (a.u.).
In the case of “ATCAAATCTAGCCATTGATTTTGCAGGGGTACGATCGGAACGGAGTCACCTAGTGCAG”, the binding signal is reported as 4570 fluorescence intensity (a.u.).
In the case of “CTTGTATCTGTCATTGCTGGATTGGAGTGTTTCGATTTGTCGGAGTCACCTAGTGCAG”, the binding signal is reported as 4830 fluorescence intensity (a.u.).
In the case of “TAGCTCAATTAAATATAGTTATACTCTAAGTTATATATGACGGAGTCACCTAGTGCAG”, the binding signal is reported as 3260 fluorescence intensity (a.u.).
For “GGGCTCTGATTTCTTGTTTCAGTTAACCGCCCATACGAAGCGGAGTCACCTAGTGCAG”, the binding signal was 4110 fluorescence intensity (a.u.).
With “AATGAATGATATATTTGTATTATAGGATGTGTCATATCCCCGGAGTCACCTAGTGCAG” the binding signal was 11800 fluorescence intensity (a.u.).
In the case of “CTATCAATCAAAGGGGCCCTTAGAATTCAGAAGCTGGTTTCGGAGTCACCTAGTGCAG”, the binding signal is reported as 18600 fluorescence intensity (a.u.).
